# According to the supplement of paper PMC10037445:
# ± gives the standard deviation of the averaged measurements. Over roughly 2,900 compounds, “IRF Lucia reporter activity, fold change vs agonist alone” has its median near 0.9; the highest 2% begin near 2.8. The list shows a part of the results.
# Key:
# [1] = system: RAW-Dual; assay: IRF Lucia reporter activity, fold change vs agonist alone; cytotoxicity flag (confluency mask): not cytotoxic; higher = enhanced IRF activity
# Method in brief: (§1)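 RAW-Dual macrophages (50,000 cells/well in DMEM, 384-well plates) received 50 nL of library stock by pin tool, then a PRR agonist 1 h later, and were kept at 37 °C, 5% CO2. After 20 hours, supernatant was read for IRF by QuantiLuc luminescence and for NF-κB by QuantiBlue absorbance at 620 nm. Reporter activity is fold change over agonist-alone wells. Cytotoxic wells had IncuCyte confluency below 70% of agonist controls in both mask sets.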
# [2] = system: RAW-Dual; assay: IRF Lucia reporter activity, fold change vs agonist alone; higher = enhanced IRF activity; details: library stock concentration (final ~1000-fold dilution): 10 mM, agonist: MPLA (TLR4) […]
# Method in brief: as §1
# [3] = system: RAW-Dual; assay: IRF Lucia reporter activity, fold change vs agonist alone; cytotoxicity flag (confluency mask): cytotoxic (confluency <70% of control); higher = enhanced IRF activity
# Method in brief: as §1
# [4] = agonist: 3'3'-cGAMP (STING) 10 ug/mL
# [5] = cytotoxicity flag (confluency mask): not cytotoxic
# [6] = cytotoxicity flag (confluency mask): cytotoxic (confluency <70% of control)
smiles,measurement,setting,value
C[C@@H]1O[C@@H](O[C@H]2[C@H](OC(=O)[C@]34CCC(C)(C)C[C@H]3C3=CC[C@@H]5[C@@]6(C)C[C@H](O)[C@H](O[C@@H]7O[C@H](CO)[C@@H](O)[C@H](O)[C@H]7O)[C@@](C)(CO)[C@@H]6CC[C@@]5(C)[C@]3(C)CC4)O[C@H](CO)[C@@H](O)[C@@H]2O)[C@H](O)[C@H](O)[C@H]1O[C@@H]1OC[C@@H](O)[C@H](O)[C@H]1O (library stock concentration (final ~1000-fold dilution): 10 mM),IRF Lucia reporter activity,[1]; [4],0.937
same,IRF Lucia reporter activity,[1]; agonist: LPS (TLR4) 0.1 ug/mL,1.09
CC1COC(Nc2ccc3ncnc(Nc4ccc(OCc5nccs5)c(Cl)c4)c3c2)=N1 (stereo not drawn),IRF Lucia reporter activity,[2]; [5],1.24
CC1COC(Nc2ccc3ncnc(Nc4ccc(OCc5nccs5)c(Cl)c4)c3c2)=N1 (stereo not drawn) (library stock concentration (final ~1000-fold dilution): 10 mM),IRF Lucia reporter activity,[1]; [4],0.243
same,IRF Lucia reporter activity,[1]; agonist: LPS (TLR4) 0.1 ug/mL,1.15
Cc1ccc(-n2nc(C(C)(C)C)cc2NC(=O)NCc2cc(F)ccc2Oc2ccc3c(cnn3CCO)c2)cc1 (library stock concentration (final ~1000-fold dilution): 10 mM),IRF Lucia reporter activity,[1]; [4],1.3
same,IRF Lucia reporter activity,[1]; agonist: LPS (TLR4) 0.1 ug/mL,0.522
O=C(OC(C(F)(F)F)C(F)(F)F)N1CCN(Cc2ccc(C(F)(F)F)cc2N2CCCC2)CC1 (library stock concentration (final ~1000-fold dilution): 10 mM),IRF Lucia reporter activity,[1]; [4],1.15
same,IRF Lucia reporter activity,[1]; agonist: LPS (TLR4) 0.1 ug/mL,1.08
Oc1ccc(-c2nc(-c3ccc(F)cc3)c(-c3ccncc3)[nH]2)cc1 (library stock concentration (final ~1000-fold dilution): 10 mM),IRF Lucia reporter activity,[1]; [4],0.0683
same,IRF Lucia reporter activity,[1]; agonist: LPS (TLR4) 0.1 ug/mL,1.28
Oc1ccc(-c2nc(-c3ccc(F)cc3)c(-c3ccncc3)[nH]2)cc1,IRF Lucia reporter activity,[2]; [5],0.862
Cl.NCCOCCOCCNC(=O)Cc1ccc(Nc2nc(NCc3ccc(F)cc3)nc(NCC3CCCCC3)n2)cc1 (library stock concentration (final ~1000-fold dilution): 10 mM),IRF Lucia reporter activity,[3]; [4],0.52
same,IRF Lucia reporter activity,[3]; agonist: LPS (TLR4) 0.1 ug/mL,0.496
Cl.NCCOCCOCCNC(=O)Cc1ccc(Nc2nc(NCc3ccc(F)cc3)nc(NCC3CCCCC3)n2)cc1,IRF Lucia reporter activity,[2]; [6],1
OCCn1cc(-c2cnc3nnn(Cc4ccc5ncccc5c4)c3n2)cn1,IRF Lucia reporter activity,[2]; [5],1.05
OCCn1cc(-c2cnc3nnn(Cc4ccc5ncccc5c4)c3n2)cn1 (library stock concentration (final ~1000-fold dilution): 10 mM),IRF Lucia reporter activity,[1]; [4],0.894
same,IRF Lucia reporter activity,[1]; agonist: LPS (TLR4) 0.1 ug/mL,0.806
CCCCc1oc2ccccc2c1C(=O)c1cc(I)c(OCCN(CC)CC)c(I)c1.Cl (library stock concentration (final ~1000-fold dilution): 10 mM),IRF Lucia reporter activity,[1]; [4],0.286
same,IRF Lucia reporter activity,[1]; agonist: LPS (TLR4) 0.1 ug/mL,1.28
CCCCc1oc2ccccc2c1C(=O)c1cc(I)c(OCCN(CC)CC)c(I)c1.Cl,IRF Lucia reporter activity,[2]; [5],1.54
Cc1nc2ccc(CN(C)c3ccc(C(=O)NC(CCC(=O)O)C(=O)O)s3)cc2c(=O)[nH]1 (stereo not drawn) (library stock concentration (final ~1000-fold dilution): 10 mM),IRF Lucia reporter activity,[1]; [4],0.842
same,IRF Lucia reporter activity,[1]; agonist: LPS (TLR4) 0.1 ug/mL,1.04
Cc1nc2ccc(CN(C)c3ccc(C(=O)NC(CCC(=O)O)C(=O)O)s3)cc2c(=O)[nH]1 (stereo not drawn),IRF Lucia reporter activity,[2]; [5],0.988
COC(=O)NC(C(=O)N1CCCC1c1ncc(-c2ccc(-c3ccc(-c4cnc(C5CCCN5C(=O)C(NC(=O)OC)C(C)C)[nH]4)cc3)cc2)[nH]1)C(C)C (stereo not drawn),IRF Lucia reporter activity,[2]; [5],3.26
COC(=O)NC(C(=O)N1CCCC1c1ncc(-c2ccc(-c3ccc(-c4cnc(C5CCCN5C(=O)C(NC(=O)OC)C(C)C)[nH]4)cc3)cc2)[nH]1)C(C)C (stereo not drawn) (library stock concentration (final ~1000-fold dilution): 10 mM),IRF Lucia reporter activity,[1]; [4],1.04
same,IRF Lucia reporter activity,[1]; agonist: LPS (TLR4) 0.1 ug/mL,4.15
COC(=O)C12CCC(C)(C)CC1C1C(=O)C=C3C4(C)C=C(C#N)C(=O)C(C)(C)C4CCC3(C)C1(C)CC2 (stereo not drawn) (library stock concentration (final ~1000-fold dilution): 10 mM),IRF Lucia reporter activity,[3]; [4],0.0165 ± 0.0022
same,IRF Lucia reporter activity,[3]; agonist: LPS (TLR4) 0.1 ug/mL,0.0174 ± 0.0077
CN(C)CCCC1(c2ccc(F)cc2)OCc2cc(C#N)ccc21.O=C(O)C(=O)O (stereo not drawn) (library stock concentration (final ~1000-fold dilution): 10 mM),IRF Lucia reporter activity,[1]; [4],1.08
same,IRF Lucia reporter activity,[1]; agonist: LPS (TLR4) 0.1 ug/mL,1.32
CN(C)CCCC1(c2ccc(F)cc2)OCc2cc(C#N)ccc21.O=C(O)C(=O)O (stereo not drawn),IRF Lucia reporter activity,[2]; [5],1.3
O=C(O)c1ccc2nc(-c3cc(Cl)cc(Cl)c3)oc2c1 (library stock concentration (final ~1000-fold dilution): 10 mM),IRF Lucia reporter activity,[1]; [4],1.05
same,IRF Lucia reporter activity,[1]; agonist: LPS (TLR4) 0.1 ug/mL,0.734
O=C(O)c1ccc2nc(-c3cc(Cl)cc(Cl)c3)oc2c1,IRF Lucia reporter activity,[2]; [5],1.11
O=C(O)CC(CC(=O)O)C(=O)O (library stock concentration (final ~1000-fold dilution): 10 mM),IRF Lucia reporter activity,[1]; [4],1.04
same,IRF Lucia reporter activity,[1]; agonist: LPS (TLR4) 0.1 ug/mL,0.675
O=C(O)CC(CC(=O)O)C(=O)O,IRF Lucia reporter activity,[2]; [5],0.993
CNC(=O)c1cc(Oc2ccc(NC(=O)Nc3ccc(Cl)c(C(F)(F)F)c3)cc2)ccn1.Cc1ccc(S(=O)(=O)O)cc1 (library stock concentration (final ~1000-fold dilution): 10 mM),IRF Lucia reporter activity,[3]; [4],0.079
same,IRF Lucia reporter activity,[3]; agonist: LPS (TLR4) 0.1 ug/mL,0.344
CNC(=O)c1cc(Oc2ccc(NC(=O)Nc3ccc(Cl)c(C(F)(F)F)c3)cc2)ccn1.Cc1ccc(S(=O)(=O)O)cc1,IRF Lucia reporter activity,[2]; [6],0.577
Nc1ccc(-c2cccc(C(=O)Nc3cnc4nc(N5CCOCC5)oc4c3)n2)cn1 (library stock concentration (final ~1000-fold dilution): 10 mM),IRF Lucia reporter activity,[1]; [4],0.717
same,IRF Lucia reporter activity,[1]; agonist: LPS (TLR4) 0.1 ug/mL,1.48
